Source: publication PMC10348911
Results are given in words; binding and its absence hold for the method and conditions named. Binding seen in cells or lysates may run through a third protein. Some binding calls cover weakened binding; strength is not graded here. For some of these results: Where a sequence is shown, tags or fusion partners need not be part of it.

Sequences of proteins named here, by UniProt entry; tags and fusion partners are left off. A change or cut given only in a name is not applied to a line headed by its entry.
UniProt P24385: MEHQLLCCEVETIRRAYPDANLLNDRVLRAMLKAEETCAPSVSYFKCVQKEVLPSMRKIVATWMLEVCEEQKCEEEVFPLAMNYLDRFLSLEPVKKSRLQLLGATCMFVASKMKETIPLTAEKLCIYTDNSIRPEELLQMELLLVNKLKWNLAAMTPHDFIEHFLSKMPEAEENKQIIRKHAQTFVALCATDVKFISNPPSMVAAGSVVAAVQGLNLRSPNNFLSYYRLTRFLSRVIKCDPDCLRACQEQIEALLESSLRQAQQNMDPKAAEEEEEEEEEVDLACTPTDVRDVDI
UniProt P30279: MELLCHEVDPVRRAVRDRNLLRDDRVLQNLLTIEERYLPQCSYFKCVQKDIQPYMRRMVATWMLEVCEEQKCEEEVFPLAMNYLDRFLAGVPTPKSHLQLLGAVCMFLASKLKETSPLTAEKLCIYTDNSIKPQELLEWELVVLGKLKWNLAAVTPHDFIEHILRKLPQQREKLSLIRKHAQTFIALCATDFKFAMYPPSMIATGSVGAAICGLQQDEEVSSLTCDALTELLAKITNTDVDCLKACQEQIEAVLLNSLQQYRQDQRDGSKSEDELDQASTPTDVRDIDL
UniProt P30281: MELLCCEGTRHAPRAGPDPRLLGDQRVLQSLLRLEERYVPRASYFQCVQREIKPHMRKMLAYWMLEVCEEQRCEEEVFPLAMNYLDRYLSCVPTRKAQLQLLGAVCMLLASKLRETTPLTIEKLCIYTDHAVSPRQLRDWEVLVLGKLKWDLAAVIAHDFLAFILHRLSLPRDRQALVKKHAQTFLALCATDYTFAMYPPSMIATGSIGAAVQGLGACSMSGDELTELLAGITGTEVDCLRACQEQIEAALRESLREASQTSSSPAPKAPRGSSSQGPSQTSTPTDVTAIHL

T1: Flag-tagged USP13 (ubiquitin-specific protease 13), wild type (UniProt Q92995)
T1 sequence: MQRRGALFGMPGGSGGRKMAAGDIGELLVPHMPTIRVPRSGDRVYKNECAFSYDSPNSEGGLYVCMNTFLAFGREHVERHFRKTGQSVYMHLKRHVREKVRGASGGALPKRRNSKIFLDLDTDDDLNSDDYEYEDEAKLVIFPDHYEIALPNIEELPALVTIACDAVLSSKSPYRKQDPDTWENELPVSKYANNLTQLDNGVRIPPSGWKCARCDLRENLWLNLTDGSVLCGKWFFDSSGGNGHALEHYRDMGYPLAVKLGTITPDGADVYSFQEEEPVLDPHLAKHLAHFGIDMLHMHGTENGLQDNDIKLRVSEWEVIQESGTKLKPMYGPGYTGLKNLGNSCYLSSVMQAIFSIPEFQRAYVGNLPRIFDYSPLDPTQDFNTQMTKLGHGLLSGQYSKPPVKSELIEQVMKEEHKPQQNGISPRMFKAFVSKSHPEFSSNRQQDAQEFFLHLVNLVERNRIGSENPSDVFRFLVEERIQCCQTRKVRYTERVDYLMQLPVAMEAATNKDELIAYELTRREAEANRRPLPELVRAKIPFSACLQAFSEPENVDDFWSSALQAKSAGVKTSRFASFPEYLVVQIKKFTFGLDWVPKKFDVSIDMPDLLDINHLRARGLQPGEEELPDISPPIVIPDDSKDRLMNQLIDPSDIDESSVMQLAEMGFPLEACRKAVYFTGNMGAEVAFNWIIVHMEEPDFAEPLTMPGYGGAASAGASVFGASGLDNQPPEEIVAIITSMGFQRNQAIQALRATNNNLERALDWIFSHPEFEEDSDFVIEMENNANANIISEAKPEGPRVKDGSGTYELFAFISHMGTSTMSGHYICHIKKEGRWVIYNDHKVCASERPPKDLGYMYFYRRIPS

T2: recombinant GST-USP13 protein (UniProt Q92995)
T2 sequence: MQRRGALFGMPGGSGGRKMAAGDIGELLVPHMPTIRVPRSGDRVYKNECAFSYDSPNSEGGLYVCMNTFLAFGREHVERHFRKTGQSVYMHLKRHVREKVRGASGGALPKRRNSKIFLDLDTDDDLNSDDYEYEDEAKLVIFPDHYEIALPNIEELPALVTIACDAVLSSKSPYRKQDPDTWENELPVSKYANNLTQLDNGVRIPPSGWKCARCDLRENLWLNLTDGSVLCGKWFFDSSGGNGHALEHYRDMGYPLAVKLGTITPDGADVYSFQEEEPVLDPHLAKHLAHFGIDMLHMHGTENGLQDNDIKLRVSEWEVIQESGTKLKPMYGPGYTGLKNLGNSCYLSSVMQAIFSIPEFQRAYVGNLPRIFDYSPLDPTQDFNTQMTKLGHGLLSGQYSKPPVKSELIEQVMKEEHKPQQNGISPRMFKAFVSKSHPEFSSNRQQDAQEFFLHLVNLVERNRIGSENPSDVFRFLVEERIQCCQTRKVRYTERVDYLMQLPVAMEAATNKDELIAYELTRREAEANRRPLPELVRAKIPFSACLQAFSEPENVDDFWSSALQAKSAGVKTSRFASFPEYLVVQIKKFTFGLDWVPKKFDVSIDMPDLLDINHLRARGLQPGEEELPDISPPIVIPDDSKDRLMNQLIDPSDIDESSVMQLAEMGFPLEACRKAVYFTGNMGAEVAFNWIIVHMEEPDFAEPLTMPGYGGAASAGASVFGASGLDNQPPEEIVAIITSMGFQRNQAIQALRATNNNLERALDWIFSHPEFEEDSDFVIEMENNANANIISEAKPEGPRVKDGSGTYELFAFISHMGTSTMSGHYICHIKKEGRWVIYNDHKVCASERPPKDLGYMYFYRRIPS

T3: USP13, endogenous (human (endogenous in HEK293T and GC cells)) (UniProt Q92995)
T3 sequence: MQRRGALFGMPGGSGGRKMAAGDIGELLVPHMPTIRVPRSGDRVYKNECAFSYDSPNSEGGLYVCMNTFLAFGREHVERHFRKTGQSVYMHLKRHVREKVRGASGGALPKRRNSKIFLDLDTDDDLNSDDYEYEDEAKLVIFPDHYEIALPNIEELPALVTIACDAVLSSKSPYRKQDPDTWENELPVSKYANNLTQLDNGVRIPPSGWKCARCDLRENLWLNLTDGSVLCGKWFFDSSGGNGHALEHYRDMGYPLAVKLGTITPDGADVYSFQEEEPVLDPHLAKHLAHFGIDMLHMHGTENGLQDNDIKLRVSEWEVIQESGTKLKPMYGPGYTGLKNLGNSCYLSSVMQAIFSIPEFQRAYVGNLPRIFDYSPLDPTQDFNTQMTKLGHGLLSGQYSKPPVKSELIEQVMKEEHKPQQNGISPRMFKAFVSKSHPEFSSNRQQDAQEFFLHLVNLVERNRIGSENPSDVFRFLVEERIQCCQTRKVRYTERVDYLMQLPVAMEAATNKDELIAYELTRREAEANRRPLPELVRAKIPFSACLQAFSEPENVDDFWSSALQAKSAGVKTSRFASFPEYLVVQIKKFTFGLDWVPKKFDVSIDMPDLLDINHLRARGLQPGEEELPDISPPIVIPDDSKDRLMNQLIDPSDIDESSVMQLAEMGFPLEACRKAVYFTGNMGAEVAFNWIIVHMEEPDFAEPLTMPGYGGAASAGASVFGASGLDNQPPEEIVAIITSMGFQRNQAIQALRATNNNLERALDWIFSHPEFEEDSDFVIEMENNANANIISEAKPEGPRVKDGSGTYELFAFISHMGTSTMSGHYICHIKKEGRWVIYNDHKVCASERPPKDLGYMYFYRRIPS


What was measured:
[1] = target: T1, Flag-tagged USP13 (ubiquitin-specific protease 13), wild type; experiment: co-IP; exogenous Co-IP: HEK293T or GC cells transfected for 48 h; IP lysis buffer 50 mM Tris-HCl pH 8.0, 150 mM NaCl, 10 mM KCl, 1.5 mM MgCl2, 0.5% NP-40, 10% glycerol, 1 mM EDTA; anti-Flag or anti-Myc antibody, Protein A/G magnetic beads overnight at 4 °C; immunoblot
[2] = target: T2, recombinant GST-USP13 protein; experiment: pull-down; GST-USP13 from E. coli BL21 (DE3) purified on Glutathione Sepharose beads; cyclin D1 expression vector transfected into HEK293T cells; only the target purified
[3] = target: T3, USP13, endogenous (human (endogenous in HEK293T and GC cells)); experiment: co-IP; endogenous IP from HEK293T and GC cells with anti-USP13 or anti-cyclin D1 antibody, Protein A/G magnetic beads overnight at 4 °C; immunoblot
[4] = target: Myc-tagged cyclin D1, wild type (UniProt P24385); experiment: co-IP; exogenous Co-IP: HEK293T or GC cells transfected for 48 h; IP lysis buffer 50 mM Tris-HCl pH 8.0, 150 mM NaCl, 10 mM KCl, 1.5 mM MgCl2, 0.5% NP-40, 10% glycerol, 1 mM EDTA; anti-Flag or anti-Myc antibody, Protein A/G magnetic beads overnight at 4 °C; immunoblot
[5] = target: cyclin D1, endogenous (human (endogenous in HEK293T and GC cells)) (UniProt P24385); experiment: co-IP; endogenous IP from HEK293T and GC cells with anti-USP13 or anti-cyclin D1 antibody, Protein A/G magnetic beads overnight at 4 °C; immunoblot

| Molecule | binding [3] | binding [4] | other results |
| --- | --- | --- | --- |
| Myc-tagged cyclin D1, wild type (from UniProt P24385 1-295) |  |  | binding [1]: binds; binding [2]: binds |
| cyclin D1 N-terminal domain (aa 1-153) deletion mutant (from UniProt P24385 1-153) (domain or fragment) |  |  | binding [1]: binds |
| cyclin D1, endogenous (from UniProt P24385 1-295) | binds |  |  |
| cyclin D2, endogenous (from UniProt P30279 1-289) | no binding |  |  |
| cyclin D3, endogenous (from UniProt P30281 1-292) | no binding |  |  |
| Flag-tagged USP13 (ubiquitin-specific protease 13), wild type (enzyme, UniProt Q92995 1-863) MQRRGALFGMPGGSGGRKMAAGDIGELLVPHMPTIRVPRSGDRVYKNECAFSYDSPNSEGGLYVCMNTFLAFGREHVERHFRKTGQSVYMHLKRHVREKVRGASGGALPKRRNSKIFLDLDTDDDLNSDDYEYEDEAKLVIFPDHYEIALPNIEELPALVTIACDAVLSSKSPYRKQDPDTWENELPVSKYANNLTQLDNGVRIPPSGWKCARCDLRENLWLNLTDGSVLCGKWFFDSSGGNGHALEHYRDMGYPLAVKLGTITPDGADVYSFQEEEPVLDPHLAKHLAHFGIDMLHMHGTENGLQDNDIKLRVSEWEVIQESGTKLKPMYGPGYTGLKNLGNSCYLSSVMQAIFSIPEFQRAYVGNLPRIFDYSPLDPTQDFNTQMTKLGHGLLSGQYSKPPVKSELIEQVMKEEHKPQQNGISPRMFKAFVSKSHPEFSSNRQQDAQEFFLHLVNLVERNRIGSENPSDVFRFLVEERIQCCQTRKVRYTERVDYLMQLPVAMEAATNKDELIAYELTRREAEANRRPLPELVRAKIPFSACLQAFSEPENVDDFWSSALQAKSAGVKTSRFASFPEYLVVQIKKFTFGLDWVPKKFDVSIDMPDLLDINHLRARGLQPGEEELPDISPPIVIPDDSKDRLMNQLIDPSDIDESSVMQLAEMGFPLEACRKAVYFTGNMGAEVAFNWIIVHMEEPDFAEPLTMPGYGGAASAGASVFGASGLDNQPPEEIVAIITSMGFQRNQAIQALRATNNNLERALDWIFSHPEFEEDSDFVIEMENNANANIISEAKPEGPRVKDGSGTYELFAFISHMGTSTMSGHYICHIKKEGRWVIYNDHKVCASERPPKDLGYMYFYRRIPS |  | binds |  |
| USP13, endogenous (enzyme, UniProt Q92995 1-863) MQRRGALFGMPGGSGGRKMAAGDIGELLVPHMPTIRVPRSGDRVYKNECAFSYDSPNSEGGLYVCMNTFLAFGREHVERHFRKTGQSVYMHLKRHVREKVRGASGGALPKRRNSKIFLDLDTDDDLNSDDYEYEDEAKLVIFPDHYEIALPNIEELPALVTIACDAVLSSKSPYRKQDPDTWENELPVSKYANNLTQLDNGVRIPPSGWKCARCDLRENLWLNLTDGSVLCGKWFFDSSGGNGHALEHYRDMGYPLAVKLGTITPDGADVYSFQEEEPVLDPHLAKHLAHFGIDMLHMHGTENGLQDNDIKLRVSEWEVIQESGTKLKPMYGPGYTGLKNLGNSCYLSSVMQAIFSIPEFQRAYVGNLPRIFDYSPLDPTQDFNTQMTKLGHGLLSGQYSKPPVKSELIEQVMKEEHKPQQNGISPRMFKAFVSKSHPEFSSNRQQDAQEFFLHLVNLVERNRIGSENPSDVFRFLVEERIQCCQTRKVRYTERVDYLMQLPVAMEAATNKDELIAYELTRREAEANRRPLPELVRAKIPFSACLQAFSEPENVDDFWSSALQAKSAGVKTSRFASFPEYLVVQIKKFTFGLDWVPKKFDVSIDMPDLLDINHLRARGLQPGEEELPDISPPIVIPDDSKDRLMNQLIDPSDIDESSVMQLAEMGFPLEACRKAVYFTGNMGAEVAFNWIIVHMEEPDFAEPLTMPGYGGAASAGASVFGASGLDNQPPEEIVAIITSMGFQRNQAIQALRATNNNLERALDWIFSHPEFEEDSDFVIEMENNANANIISEAKPEGPRVKDGSGTYELFAFISHMGTSTMSGHYICHIKKEGRWVIYNDHKVCASERPPKDLGYMYFYRRIPS |  |  | binding [5]: binds |
| Flag-tagged USP13 truncated mutant containing the UBA domain (aa 625-863) (domain or fragment, UniProt Q92995 625-863) ELPDISPPIVIPDDSKDRLMNQLIDPSDIDESSVMQLAEMGFPLEACRKAVYFTGNMGAEVAFNWIIVHMEEPDFAEPLTMPGYGGAASAGASVFGASGLDNQPPEEIVAIITSMGFQRNQAIQALRATNNNLERALDWIFSHPEFEEDSDFVIEMENNANANIISEAKPEGPRVKDGSGTYELFAFISHMGTSTMSGHYICHIKKEGRWVIYNDHKVCASERPPKDLGYMYFYRRIPS |  | binds |  |
| Flag-tagged USP13 truncated mutant with the UBA domain deleted (domain or fragment, UniProt Q92995 1-624) MQRRGALFGMPGGSGGRKMAAGDIGELLVPHMPTIRVPRSGDRVYKNECAFSYDSPNSEGGLYVCMNTFLAFGREHVERHFRKTGQSVYMHLKRHVREKVRGASGGALPKRRNSKIFLDLDTDDDLNSDDYEYEDEAKLVIFPDHYEIALPNIEELPALVTIACDAVLSSKSPYRKQDPDTWENELPVSKYANNLTQLDNGVRIPPSGWKCARCDLRENLWLNLTDGSVLCGKWFFDSSGGNGHALEHYRDMGYPLAVKLGTITPDGADVYSFQEEEPVLDPHLAKHLAHFGIDMLHMHGTENGLQDNDIKLRVSEWEVIQESGTKLKPMYGPGYTGLKNLGNSCYLSSVMQAIFSIPEFQRAYVGNLPRIFDYSPLDPTQDFNTQMTKLGHGLLSGQYSKPPVKSELIEQVMKEEHKPQQNGISPRMFKAFVSKSHPEFSSNRQQDAQEFFLHLVNLVERNRIGSENPSDVFRFLVEERIQCCQTRKVRYTERVDYLMQLPVAMEAATNKDELIAYELTRREAEANRRPLPELVRAKIPFSACLQAFSEPENVDDFWSSALQAKSAGVKTSRFASFPEYLVVQIKKFTFGLDWVPKKFDVSIDMPDLLDINHLRARGLQPGEE |  | no binding |  |
